The campaign covered roughly 43,000 compounds. About 200 (0.47%) were called active. Inconclusive results (about 12%) are left out. The call rests on the fitted dose curve; in most records, active means well fitted cell-killing curve with a large enough effect; inconclusive means small, poorly fitted or top-dose-only effect, or effect the other way; inactive means flat fitted curve, though single readings scatter. The list shows a part of the results.
Test: Cell viability qHTS assay in S16 Pmp22-F2sN cells; further: nearly all actives have a fitted effect of over 65% in size
Conditions: S16 Pmp22-F2sN Schwann cells viability, CellTiter-Glo, 24 h; series mostly up to 57.5 µM; activity change, negative = cytotoxicity: at the top concentration
Procedure, shortened: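 S16 Pmp22-F2sN Schwann cells (500-1,000/well) in phenol-red-free DMEM with 10% FBS received 23 nL compound by pin tool for 24 h at 37 °C. Viability was then read as CellTiter-Glo luminescence after 15 min at room temperature.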
On the % scale 0 is the no-effect control and ±100 the full control effect.

Structure (SMILES) | activity change, negative = cytotoxicity
Cc1nc(-c2ccccc2)sc1CCNC(=O)c1ccco1 | inactive: 8.95%
CCOC(=O)c1ccccc1NS(=O)(=O)c1c(-c2ccc(C)cc2)csc1C(=O)OC | inactive: 0.727%
COc1cccc(CNC(=O)CCc2c(C)c3cc4c(C)c(C)oc4cc3oc2=O)c1 | inactive: 7.62%
Cc1ccc(S(=O)(=O)c2cn(Cc3ccccc3)c3cc(N4CCCC4)c(F)cc3c2=O)cc1C | inactive: -21.6%
COc1ccccc1CNS(=O)(=O)c1c(C)nc2sccn2c1=O | inactive: 0.31%
CCN(Cc1ccccc1)C(=O)CCNS(=O)(=O)c1ccc2c(c1)CC(C)N2C(C)=O (stereo not given) | inactive: -9.06%
CCCOC(=O)CSc1nnc2ccc3ccccc3n12 | inactive: -0.644%
O=C(CSc1nc2ccccc2nc1Cc1ccccc1)Nc1ccc2c(c1)OCO2 | inactive: -3.15%
COc1ccc(NC(=O)c2ccc3c(c2)CCN3S(=O)(=O)c2ccc(C)cc2)cc1Cl | inactive: -0.0965%
CCOC(=O)c1cccc(NC(=O)C(C)n2c(C)c3cnn(-c4ccccc4)c(=O)c3c2C)c1 (stereo not given) | inactive: -18.1%
Cc1c(Cl)cccc1NC(=O)CN1C(=O)COc2ccc(S(=O)(=O)Nc3ccccc3)cc21 | inactive: -0.291%
COc1ccc(Cl)cc1NC(=O)CCc1c(C)nc2c(c1C)c(=O)n(C)c(=O)n2C | inactive: 16.1%
COc1cc(NC(=O)CSc2nc3nc(C)c(Cc4ccc(C)cc4)c(C)n3n2)cc(OC)c1 | inactive: 30%
CCCSCCCNC(=O)c1ccc(Cn2c(=O)c3cccn3c3cccnc32)cc1 | inactive: -2.15%
Cc1ccc(NC(=O)CN(C)S(=O)(=O)c2ccc3nc(C)sc3c2)c(C)c1 | inactive: -3.54%
CC(C)NS(=O)(=O)c1ccc2nc(NC(=O)c3cncc(Br)c3)sc2c1 | inactive: -3.96%
Cc1ccc(Cn2nnc(C(=O)Nc3ccc(F)c(F)c3)c2N)cc1 | inactive: 2.41%
COc1ccc(S(=O)(=O)N2CCC(n3c(C(F)(F)F)nc4cccnc43)CC2)cc1OC | inactive: -25.3%
COc1ccc(C(=O)CN2C(=O)N(c3ccc(C(C)=O)cc3)S(=O)(=O)c3ccccc32)cc1 | inactive: -16.8%
O=C(CSc1nc(-c2ccccc2)no1)N1CCCCC1 | inactive: -0.116%

Structure (SMILES) | activity change, negative = cytotoxicity
CCOC(=O)N1CCc2c(sc3c2c(=O)n(CCc2ccccc2)c(=O)n3Cc2ccc(F)cc2)C1 | inactive: 4.26%
Cc1ccccc1-c1nn2c(=O)cc(CN3CCN(C(=O)c4ccc(C(C)(C)C)cc4)CC3)nc2s1 | inactive: -26%
O=C1CC(c2ccccc2)Cc2[nH]c(=O)c(C(=O)Nc3cccc(Cl)c3)cc21 (stereo not given) | inactive: 1.03%
COC(=O)c1ccc(NC(=O)CN2CCN(c3ccc(Cl)cc3)CC2)cc1 | inactive: 3.29%
COc1ccc(NC(=O)c2cn(-c3ccccc3)nc2-c2ccc(C)cc2)cc1 | inactive: 6.38%
CCOc1ccccc1-n1cc2c(c1-c1ccc(OC)cc1)c(=O)n(C)c(=O)n2C | inactive: 4.57%
Cc1ccc(N(C)C(=O)C2CCN(S(=O)(=O)c3ccc4c(c3)CCCN4C(=O)C3CCC3)CC2)cc1 | inactive: 13%
COc1ccccc1N1CCN(c2ncnc3c2cnn3C)CC1 | inactive: -12.9%
CCc1ccc(C(=O)COC(=O)C(Cc2c[nH]c3ccccc23)NC(=O)c2ccc(Br)cc2)cc1 (stereo not given) | inactive: -2.94%
CCOc1ccc(C2c3cc(OCC)c(OCC)cc3CC(=O)N2c2ccc(C(=O)O)cc2)cc1OCC (stereo not given) | inactive: -9.29%
CCOC(=O)c1cccc(NC(=O)C2CCN(S(=O)(=O)c3ccc4c(c3)oc(=O)n4C)CC2)c1 | inactive: -6.08%
COc1ccc(S(=O)(=O)N(CCc2ccccc2)CC(=O)Nc2cccc(OC)c2)cc1 | inactive: 0.173%
CCc1cccc(C)c1NC(=O)Cn1ccn(-c2ccc(F)cc2)c(=O)c1=O | inactive: 2.31%
Cc1nc2ccc(S(=O)(=O)N(C)CC(=O)Nc3ccc(Br)c(C)c3)cc2s1 | inactive: 1.39%
COc1ccc(CCN2C(=O)c3oc4ccc(F)cc4c(=O)c3C2c2ccc(C(C)(C)C)cc2)cc1 (stereo not given) | inactive: 6.57%
CN(Cc1ccccc1)S(=O)(=O)c1ccc(F)c(C(=O)Nc2cccc(Cl)c2Cl)c1 | inactive: -25.2%
Cc1ccc(C(C)(C)C)c(OCC(=O)NCCc2nc3ccccc3[nH]2)c1 | inactive: 5.47%
Cc1ccccc1NS(=O)(=O)c1ccc(Br)s1 | inactive: 2.73%
COc1ccc(-c2nc3sc(CCNC(=O)c4cc(Cl)ccc4OC)c(C)n3n2)cc1 | inactive: 2.41%
CCOc1ccc(C2=NC(c3cccs3)=Nc3ccc(C(C)C)cc3N2)cc1 | inactive: 8.54%

Structure (SMILES) | activity change, negative = cytotoxicity
Cc1cccc(CC2C(=O)Nc3ccccc32)c1 (stereo not given) | inactive: -18.6%
CCOc1ccccc1-n1nnc(-c2nc(-c3ccccc3)no2)c1N | inactive: -0.137%
Cc1c(/C=C(\C#N)C(=O)Nc2cccc(Cl)c2)c2ccccc2n1Cc1ccccc1Cl | inactive: -13.1%
CCN(CC)c1cc2c(cc1F)c(=O)c(S(=O)(=O)c1cc(C)ccc1C)cn2Cc1ccccc1 | inactive: -0.231%
O=C(CCCn1c(=O)c2cccn2c2cccnc21)NCc1ccc(F)cc1 | inactive: 0.67%
CCC1CCCCN1CC(=O)N1CCCc2c1c(=O)oc1ccc(OCc3ccccc3)cc21 (stereo not given) | inactive: -26.9%
COc1cccc2c1cc1c(=O)n(CC(=O)N3CCN(c4cc(Cl)ccc4C)CC3)nc(C)n12 | inactive: 10.6%
CCOC(=O)c1ccc(NC(=O)C2=C(C)Nc3nc(SCc4ccc(Cl)cc4)nn3C2c2ccc(OC)cc2)cc1 (stereo not given) | inactive: -9.97%
COc1ccc(-c2nnc(SCC(=O)Nc3ccc(Cl)cc3)s2)cc1 | inactive: -11.6%
COc1ccc(C(=O)CC2(O)C(=O)N(Cc3ccccc3Cl)c3ccccc32)cc1 (stereo not given) | inactive: -23.9%
COc1ccc(CNC(=O)CCC(=O)N2CCSc3ccccc32)cc1 | inactive: -1.92%
CCOc1ccc(-n2c(C)nc3cc(C(=O)NCCC4=CCCCC4)ccc32)cc1 | inactive: 21.7%
Cc1cc(C)cc(N2CCn3c2nc2c3c(=O)n(Cc3ccc(Cl)cc3)c(=O)n2C)c1 | inactive: 7.63%
CC(C)c1ccc(CNc2nc(-c3ccco3)nn2S(=O)(=O)c2ccc3ccccc3c2)cc1 | inactive: -1.03%
COc1ccc(CNC(=O)Cn2nnc(-c3ccc(S(C)(=O)=O)cc3)n2)cc1 | inactive: -1.12%
O=S(=O)(c1ccccc1)c1nc(-c2ccc(Cl)cc2Cl)oc1N1CCCCCC1 | inactive: -7.9%
COc1cc2c(cc1OC)C(COc1ccc(F)cc1)N(C(=O)Cc1ccc(F)cc1)CC2 (stereo not given) | inactive: -20.4%
CCCCNC(=O)CSc1nc2cc3c(cc2c(=O)n1CCCCCC(=O)NCc1ccc2c(c1)OCO2)OCO3 | inactive: 7.04%
Cc1ccc(-n2c(SCC(=O)NCc3ccc(F)cc3)nc3c([nH]c4ccccc43)c2=O)cc1 | inactive: -14.1%
Cc1ccc2oc3c(c(=O)c2c1)C(c1ccccc1F)N(CCCN1CCOCC1)C3=O (stereo not given) | inactive: 7.29%
